Measurements as given in PMC4336329 (PLoS ONE, 2015).
In all, about 310,000 compounds went through this assay and about 2,200 (0.71%) showed an effect of 50% or more. Effects have a minus sign here. This is one part of the list.

Biological target: human ether-à-go-go-related gene (hERG) potassium channel (human, UniProt Q12809)
Assay: primary screen, population patch clamp on CHO cells stably expressing hERG

Chain of human ether-à-go-go-related gene (hERG) potassium channel (Q12809 whole entry, looked up): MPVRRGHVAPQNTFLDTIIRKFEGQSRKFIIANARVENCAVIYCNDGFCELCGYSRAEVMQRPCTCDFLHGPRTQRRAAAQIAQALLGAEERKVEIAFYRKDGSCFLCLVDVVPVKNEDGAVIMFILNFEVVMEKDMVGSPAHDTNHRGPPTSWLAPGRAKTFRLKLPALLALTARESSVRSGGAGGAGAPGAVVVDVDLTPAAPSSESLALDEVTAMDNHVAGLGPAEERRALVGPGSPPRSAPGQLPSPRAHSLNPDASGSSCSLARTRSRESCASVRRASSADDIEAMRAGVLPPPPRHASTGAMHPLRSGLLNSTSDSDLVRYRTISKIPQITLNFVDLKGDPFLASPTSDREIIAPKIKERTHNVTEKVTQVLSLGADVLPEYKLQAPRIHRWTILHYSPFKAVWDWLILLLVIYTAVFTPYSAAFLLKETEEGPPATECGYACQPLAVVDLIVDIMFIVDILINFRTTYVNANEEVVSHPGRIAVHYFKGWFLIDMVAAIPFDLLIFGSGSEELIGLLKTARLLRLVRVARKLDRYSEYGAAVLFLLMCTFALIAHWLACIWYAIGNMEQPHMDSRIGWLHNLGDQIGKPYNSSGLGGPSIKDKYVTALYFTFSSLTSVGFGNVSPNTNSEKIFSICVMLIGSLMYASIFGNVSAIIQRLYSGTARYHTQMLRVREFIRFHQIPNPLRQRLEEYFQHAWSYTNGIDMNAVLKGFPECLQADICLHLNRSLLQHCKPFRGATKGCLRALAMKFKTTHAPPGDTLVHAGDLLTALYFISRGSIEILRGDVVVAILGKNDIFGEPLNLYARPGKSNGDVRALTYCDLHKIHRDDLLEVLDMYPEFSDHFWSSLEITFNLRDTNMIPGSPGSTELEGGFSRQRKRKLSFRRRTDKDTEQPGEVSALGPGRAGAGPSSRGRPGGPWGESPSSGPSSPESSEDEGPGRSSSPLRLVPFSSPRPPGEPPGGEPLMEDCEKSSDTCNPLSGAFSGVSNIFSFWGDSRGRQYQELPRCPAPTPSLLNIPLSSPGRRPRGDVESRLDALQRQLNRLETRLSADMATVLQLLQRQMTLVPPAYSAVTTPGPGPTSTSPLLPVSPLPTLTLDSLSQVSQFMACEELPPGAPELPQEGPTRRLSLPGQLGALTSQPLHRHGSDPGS

| Structure (SMILES) | hERG current change (%, negative = inhibition) at 1uM |
| --- | --- |
| Cc1ccc(CC(=O)OC(C)C(=O)NC2CCCCC2C)cc1C (stereo not drawn) | 21% |
| Cc1ccc(NS(=O)(=O)c2c(C)[nH]c(C)c2C(=O)N2CCCCC2)cc1C | 7.36% |
| CCOc1cccc(-c2nnc3sc(COc4ccc(OC)cc4)nn23)c1 | 7.23% |
| COc1cc(Cl)ccc1OCc1cc(C(=O)N2CCN(c3ccccn3)CC2)no1 | 14.3% |
| COc1ccc(/C=C2/S/C(=N/N=C3\CC4CCC3(C)C4(C)C)NC2=O)cc1 (stereo not drawn) | 15.3% |
| COc1ccc(NC(=O)C(NCC(C)C)c2ccccc2)cc1Cl (stereo not drawn) | 16.6% |
| CCCCn1c(N)c(N(CC(C)C)C(=O)CCNC(=O)c2ccc(Cl)cc2)c(=O)[nH]c1=O | 4.64% |
| CCCS(=O)(=O)c1cn2cccc(N)c2c1S(=O)(=O)CCC | 3.04% |
| CCC(=O)Nc1ccc(C(=O)n2nc(C)cc2C)cc1 | 1.88% |
| Cc1nn(-c2ccccc2)c(C)c1NC(=O)COC(=O)CCc1ccccc1 | -0.14% |
| COC(=O)c1cc(COc2ccc3oc(C)c(C(=O)OC(C)C)c3c2)c(C)o1 | 7.32% |
| Cc1cccc2[nH]c3c(N4CC=C(c5ccc(F)cc5)CC4)ncnc3c12 | 8.01% |
| O=C(OC(C(=O)NCc1cccs1)c1ccccc1F)c1ccco1 (stereo not drawn) | 16.8% |
| O=C(O)c1ccc(CSc2nnnn2-c2ccc(F)cc2)cc1 | 6.99% |
| CCN(CC(=O)Nc1cccc(S(=O)(=O)N(C)c2ccccc2)c1)Cc1cccs1 | -17.1% |
| CCOc1ccc(NC(=O)CN(C)C(=O)CCCc2c[nH]c3ccccc23)cc1OCC | 20% |
| Cc1cc(NCCCN2CCOCC2)n2nc(C)c(-c3ccccc3)c2n1 | 8.8% |
| Cc1ccc(C(=O)Nc2cccc(C(=O)N3CCN(C)CC3)c2)cc1 | 1.56% |
| O=C(Nc1ccc(N2CCN(C(=O)c3ccccc3)CC2)c(Cl)c1)c1ccc(Br)o1 | -8.64% |
| Cc1c(Br)c([N+](=O)[O-])nn1CC(=O)Nc1cccc2nonc12 | 14.7% |
| CN1CCN(c2nc3c(c(=O)n(C)c(=O)n3C)n2CC(=O)C23CC4CC(CC(C4)C2)C3)CC1 | 9.83% |
| CC(=O)Nc1ccc(S(=O)(=O)NC2Cc3ccccc3C2)cc1 | 14.2% |

| Structure (SMILES) | hERG current change (%, negative = inhibition) at 1uM |
| --- | --- |
| C=CCn1c(SCC(=O)NCCc2ccccc2)nc2c([nH]c3ccccc32)c1=O | 8.25% |
| COc1ccccc1C(=O)Nc1ccccn1 | 3.42% |
| Cc1ccccc1OCC(=O)N/N=C1\SCC(=O)N1Cc1ccccc1 | 2.71% |
| O=C(NCCC1=CCCCC1)c1cnsn1 | 15.3% |
| C=CCn1c(N2CCN(c3ccc(OC)cc3)CC2)nc2c1c(=O)n(C)c(=O)n2C | 2.71% |
| O=C(Nc1ccc(F)c(F)c1)C1CCN(S(=O)(=O)c2cccs2)CC1 | 7.45% |
| O=C(/C(=N\Nc1ccc(Br)cc1)Sc1nnnn1-c1ccccc1)c1ccccc1 | 13.8% |
| Cc1ccc(S(=O)(=O)CCC(=O)N2CCc3ccccc32)cc1 | 5.5% |
| CC1CCc2c(C(=O)Oc3cccc(-n4cnnn4)c3)csc2C1 (stereo not drawn) | -2.65% |
| Cc1cc(/C=C(\C#N)C(=O)N2CCOCC2)c(C)n1C1CCCC1 | 5.88% |
| C#CCOCCOCCOCCNc1nc(N2CCOCC2)nc(N2CCN(C(=O)[C@H](CCC(=O)O)n3cc(C(N)[C@H](C)CC)nn3)CC2)n1.Cl (stereo partly drawn) | 11.9% |
| COc1ccc(OC)c(NC(=O)COC(=O)CCCN2C(=O)c3ccccc3C2=O)c1 | 10.4% |
| CNc1ncc(Cc2ccccc2)s1 | 1.64% |
| COc1ccccc1OCC(=O)NC1CCCCCC1 | 10.2% |
| CC(=O)N1c2ccc(S(=O)(=O)N(C)CC(=O)NC3CCCCC3C)cc2CC1C (stereo not drawn) | 17.5% |
| COc1ccc(N/C(=N/c2nc(C)cc(C)n2)NC(=O)Nc2ccc(Cl)c(Cl)c2)c(OC)c1 | -4.86% |
| C[C@@H](N)C(=O)NCC1CCC(C(=O)N[C@@H](Cc2ccccc2)C(=O)O)CC1.Cl (stereo partly drawn) | 15.7% |
| Cn1c(S(=O)(=O)O)nc2ccccc21 | 14.2% |
| Clc1ccc(CCNCc2ccncc2)c(Cl)c1.O=C(O)C(=O)O | -13.2% |
| O=C(Nc1nnc(S(=O)(=O)N2CCCCCC2)s1)c1ccccc1F | 12.7% |
| CCCn1c(CCC(=O)O)ccc1-c1ccc(F)cc1 | 12.8% |
| O=C(CCCl)Nc1ccc(S(=O)(=O)NCc2ccco2)cc1 | 0.0894% |

| Structure (SMILES) | hERG current change (%, negative = inhibition) at 1uM |
| --- | --- |
| O=C(COc1ccc(Br)cc1)N1CCNC1=O | 7.31% |
| COc1cc(C=O)ccc1OCC(=O)N1CCOCC1 | 8.82% |
| CSc1sc(-c2nnc(SCC(=O)Nc3ccc(Cl)cc3)n2C)c2c1C=CCC2 | 6.35% |
| CCOC(=O)C1CCN(C(=O)CCCn2nc(CC)n3c(cc4occc43)c2=O)CC1 | 1.18% |
| Cc1c(O)c2c(=O)n(-c3ccccc3)c(-c3ccccc3)cc2oc1=O | 4.71% |
| COc1cccc(C(C)NC(=O)c2ccncc2)c1 (stereo not drawn) | 26.6% |
| COCC(=O)N1CCC(Oc2ccc(C(=O)NC(C)c3nccs3)cc2)CC1 (stereo not drawn) | 10.4% |
| COc1ccccc1NC(=O)CSc1nnnn1Cc1ccccc1 | 3.72% |
| CNS(=O)(=O)c1ccc(C(C)(C)C)cc1 | 7.8% |
| CCCC(C(=O)NCc1ccco1)N(CC1CCCO1)C(=O)CNS(=O)(=O)c1ccc(F)cc1 (stereo not drawn) | 14.1% |
| COC(=O)/C(=C\c1cccnc1)NC(=O)c1ccc(OCc2ccccc2)cc1 | 4.19% |
| COc1ccc(C2NC(=O)c3n[nH]c(C)c32)c(OC)c1 (stereo not drawn) | 10% |
| COc1c(Cl)cccc1-c1cn2ccc(C)cc2n1 | 14.4% |
| O=C(CN1CCN(Cc2ccccc2)CC1)NC(c1ccccc1)c1ccccc1.O=C(O)C(=O)O | -1.56% |
| COc1ccc(-n2cc(-c3ccccc3)c3c(N4CCOCC4)ncnc32)cc1 | 10.3% |
| O=C(CCSCCC(=O)NCc1ccc(F)cc1)NCc1ccc(F)cc1 | 6.06% |
| CC(=O)NCC(=O)OCC(=O)c1ccc2ccccc2c1 | 6.73% |
| NCCCCC(N)c1cn([C@@H](CCC(=O)O)C(=O)N2CCNCC2)nn1 (stereo partly drawn) | 12.1% |
| CCCCOCCCNC(=S)Nc1ccc(S(=O)(=O)N2CCOCC2)cc1 | 9.09% |
| Cc1ccc(N2CC(C(=O)Nc3ccc4c(c3)OCO4)CC2=O)cc1 (stereo not drawn) | 8.67% |
| COc1ccc(CNC(=O)CSc2ncn[nH]2)cc1OC | 17.6% |
| CC(=O)c1ccc(S(=O)(=O)N(C)C(C)CCc2ccco2)cc1 (stereo not drawn) | 9.14% |

| Structure (SMILES) | hERG current change (%, negative = inhibition) at 1uM |
| --- | --- |
| Cc1ccc(OP(N)(=O)Oc2ccc(C)cc2)cc1 | 8.04% |
| Cc1cc(NC(=O)c2cccnc2)ccc1NC(=O)c1ccco1 | 22.7% |
| COc1ccc(NS(=O)(=O)c2cc(NC(=O)c3ccco3)ccc2N2CCCC2)cc1 | -1.4% |
| O=C1CCSc2cccc3cccc(c23)N1 | 2.17% |
| Cc1cccc2nc(C(=O)Nc3cc(Cl)ccc3-n3cncn3)cn12 | 5.37% |
| CCOc1ccc(C(CC(=O)O)NC(=O)COc2ccccc2)cc1 (stereo not drawn) | 14.5% |
| CN(CC(=O)O/N=C(\N)c1ccc(Br)cc1)S(=O)(=O)c1ccccc1 | 6.17% |
| CC(=O)Cc1nsc(NC(=O)c2ccc(-c3cc(C(F)(F)F)ccc3Cl)o2)n1 | 19% |
| Cc1ccc(C)c(N2CCN(CCCNC(=O)Cn3cccc3C(=O)c3ccccc3)CC2)c1 | -19.7% |
| COc1cccc(CNC(=O)c2nnn(-c3ccc(OC(F)(F)F)cc3)c2N)c1 | -6.5% |
| CCC(=O)N1CCc2cc(S(=O)(=O)N3CCCCCC3)ccc21 | 16.1% |
| O=C(CCC(=O)N1C[C@H]2C[C@@H](C1)c1cccc(=O)n1C2)NCc1cccc(C(F)(F)F)c1 | 10.4% |
| Cc1cc(=O)oc2cc(N3C(=O)CC(Cc4ccccc4)C3=O)ccc12 (stereo not drawn) | 0.0956% |
| CCOC(=O)c1cccc(NC(=O)C2CCN(S(=O)(=O)c3cnc[nH]3)CC2)c1 | 6.74% |
| Cc1c(OC(C)C(=O)NCc2ccccn2)ccc2c3c(c(=O)oc12)CCC3 (stereo not drawn) | 30.3% |
| Cc1nc(-c2nnc(SCC(=O)Nc3ccc(Cl)cc3)n2C)cs1 | 6.1% |
| CCCCc1cc(=O)oc2cc(C)cc(OCC(=O)N3CCC(C(=O)O)(c4ccccc4)CC3)c12 | 0.325% |
| CCN(CC)S(=O)(=O)c1cccc(-c2nnc(SCCOc3ccc(Cl)cc3)o2)c1 | 15.6% |
| O=C(NCc1ccc(F)cc1)c1cccc(S(=O)(=O)N2CCOCC2)c1 | 4.55% |
| CC1CC2=C(C(=O)O1)C(c1ccccc1)Nc1ccccc1N2 (stereo not drawn) | 12.8% |
| CC(C)NS(=O)(=O)c1ccc(CCC(=O)NCc2ccncc2)cc1 | 7.1% |
